Assay results: PubChem BioAssay AID759 (NMMLSC, 2007)
In all, about 190,000 compounds went through this assay and about 270 (0.14%) were called active. The inconclusive results got no clear call from the source; some entries with a clear call stand among them for comparison.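 Rule for the calls: active = GTP binding activity at least 20% away from the 100% baseline, either lowered as inhibitor or raised as activator; inconclusive = flagged as likely green fluorescent, judged across all proteins in the well; inactive = the rest.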

target: GTPase HRas (Homo sapiens) (UniProt P01112); assay: HRas wt fluorescent GTP binding changes, either direction – biochemical, wildtype, bead-based flow cytometry, multiplex, primary screen (AID 759); conditions: GST-Ras wt beads, Bodipy-FL-GTP binding, at 10 µM, actives lie on both sides;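 note: 0% = unlabeled GTP competition control and 100% = no-compound control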
Sequence of UniProt P01112 (P01112 whole entry, looked up): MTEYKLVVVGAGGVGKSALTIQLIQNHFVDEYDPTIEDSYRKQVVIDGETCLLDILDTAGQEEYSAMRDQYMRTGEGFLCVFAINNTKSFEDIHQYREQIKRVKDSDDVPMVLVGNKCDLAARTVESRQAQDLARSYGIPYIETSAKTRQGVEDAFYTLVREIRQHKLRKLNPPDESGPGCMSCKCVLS

SMILES	GTP binding activity
COc1ccc(C(=O)C2CCCN(Cc3ccc4nonc4c3)C2)c(OC)c1 (stereo not given)	inactive: 95%
O=C(NN=C1C2CC3CC1CC(Cl)(C3)C2)c1ccccn1	inactive: 98%
O=C(Nc1cccc(F)c1)C1CC(=O)N(c2ccc(Cl)cc2)C1 (stereo not given)	inconclusive: 104%
O=C(Nc1cccc(O)c1)c1cc2nc(-c3ccccc3)cc(-c3ccccc3)n2n1	inconclusive: 89%
Cc1ccccc1C(=O)Nc1ccc(N2CCCCCC2)cc1	inactive: 96%
CC(=O)Nc1ccc(N=Cc2c(O)c(C(=O)Nc3ccccc3)cc3ccccc23)cc1	inconclusive: 125%
O=c1cc(CO)oc(CN2CCN(c3ccccc3)CC2)c1O	inconclusive: 106%
C=CCn1c(SCC(N)=O)nnc1-c1cccc(Br)c1	inconclusive: 103%
CCCC1CCC(=C(C#N)C(N)=O)CC1 (stereo not given)	inactive: 102%
CCOC(=O)c1sc2ncn(/N=C/c3cccnc3)c(=O)c2c1C	inconclusive: 107%
CCN(CC)C(=O)c1oc2ccc(S(=O)(=O)N3CCCCCC3)cc2c1C	inconclusive: 92%
Cc1cc(C(=O)CCl)c(C)n1-c1c(C)n(C)n(-c2ccccc2)c1=O	inactive: 96%
COCCNC(=O)C(=O)c1cc(C)n(-c2ccc([N+](=O)[O-])cc2)c1C	inconclusive: 95%
CCCOc1ccc(CCc2n[nH]c(=S)n2-c2ccccc2)cc1	inconclusive: 92%
COc1cc(/C=C/C(=O)Nc2nc3ccc(S(=O)(=O)NC(C)C)cc3s2)cc(OC)c1OC	inactive: 100%
Cc1[nH]c2ccccc2c1CCNC(=O)c1ccc2c(c1[N+](=O)[O-])C(=O)c1ccccc1C2=O	inconclusive: 80%
CCCCCC1CCC(C(=O)O)CC1 (stereo not given)	inconclusive: 107%
CN(C)CCN1C(=O)C(O)=C(C(=O)c2cc3ccccc3o2)C1c1ccccn1 (stereo not given)	inconclusive: 92%
COc1ccc(Nc2nc(N)nc(CSC(=S)N3CCCCC3)n2)cc1	inconclusive: 90%
N#Cc1c2c(c(=S)n(-c3ccccc3)c1N)CCCC2	inconclusive: 89%
COc1ccc(CCNc2nc(=S)[nH]c3cc(OC)c(OC)cc23)cc1OC	active: 48%
COc1ccc(/C=N/NC(=O)C(N)=O)c(OC)c1OC	inconclusive: 106%
COc1ccc2[nH]c3c(=O)n(Cc4ccc(C(=O)N5CCC(C(N)=O)CC5)cc4)c(=S)[nH]c3c2c1	inconclusive: 88%
Cc1ccc(Cl)c(OCCCCN(C)Cc2ccccc2)c1	inconclusive: 103%
COc1cccc2c(=O)c3cccc(N)c3[nH]c12	inconclusive: 87%
